# Test results published in the supplement of paper PMC8728848.
# Some of the results follow.
# B1: Pul13 (Thermotoga maritima), O33840 (protein)
# chain: ETTIVVHYHRYDGKYDGWNLWIWPVEPVSQEGKAYQFTGEDDFGKVAVVKLPMDLTKVGIIVRLNEWQAKDVAKDRFIEIKDGKAEVWILQGVEEIFYEKP
# What was measured:
# Experiment in all cases: glycan array binding signal (z-score within array); higher = stronger binding
# Conditions in all cases: glycan notation: IUPAC condensed, linker removed
# Glc(a1-2)Glc = molecular target: Glc(a1-2)Glc
# How it was run: (§1)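 The Consortium for Functional Glycomics database supplied 3228 glycan arrays, of which those lacking an available protein sequence were dropped. The binding signal, a within-array Z-score, was averaged across arrays of the same protein sequence and across linkers. Negative scores can be read as non-binding.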
# Glc(a1-2)Glc(a1-2)Glc = molecular target: Glc(a1-2)Glc(a1-2)Glc
# How it was run: as §1
# [1] = molecular target: Glc(a1-2)Glc(a1-2)Glc(a1-2)Glc
# How it was run: as §1
# [2] = molecular target: Glc(a1-2)Glc(a1-2)Glc(a1-2)Glc(a1-2)Glc
# How it was run: as §1
# [3] = molecular target: Glc(a1-2)Glc(a1-2)Glc(a1-2)Glc(a1-2)Glc(a1-2)Glc
# How it was run: as §1
# [4] = molecular target: Glc(a1-2)Glc(a1-2)Glc(a1-2)Glc(a1-2)Glc(a1-2)Glc(a1-2)Glc
# How it was run: as §1
# [5] = molecular target: Glc(a1-2)Glc(a1-2)Glc(a1-2)Glc(a1-2)Glc(a1-2)Glc(a1-2)Glc(a1-2)Glc
# How it was run: as §1
# [6] = molecular target: Glc(a1-2)Glc(a1-2)Glc(a1-2)Glc(a1-2)Glc(a1-2)Glc(a1-2)Glc(a1-2)Glc(a1-2)Glc
# How it was run: as §1
# Glc(a1-3)Glc = molecular target: Glc(a1-3)Glc
# How it was run: as §1
# Glc(a1-3)Glc(a1-3)Glc = molecular target: Glc(a1-3)Glc(a1-3)Glc
# How it was run: as §1
# [7] = molecular target: Glc(a1-3)Glc(a1-3)Glc(a1-3)Glc
# How it was run: as §1
# [8] = molecular target: Glc(a1-3)Glc(a1-3)Glc(a1-3)Glc(a1-3)Glc
# How it was run: as §1
# [9] = molecular target: Glc(a1-3)Glc(a1-3)Glc(a1-3)Glc(a1-3)Glc(a1-3)Glc
# How it was run: as §1
# [10] = molecular target: Glc(a1-3)Glc(a1-3)Glc(a1-3)Glc(a1-3)Glc(a1-3)Glc(a1-3)Glc
# How it was run: as §1
# [11] = molecular target: Glc(a1-3)Glc(a1-3)Glc(a1-3)Glc(a1-3)Glc(a1-3)Glc(a1-3)Glc(a1-3)Glc
# How it was run: as §1
# [12] = molecular target: Glc(a1-3)Glc(a1-3)Glc(a1-3)Glc(a1-3)Glc(a1-3)Glc(a1-3)Glc(a1-3)Glc(a1-3)Glc
# How it was run: as §1
# [13] = molecular target: Glc(a1-3)Glc(a1-3)Glc(a1-3)Glc(a1-3)Glc(a1-3)Glc(a1-3)Glc(a1-3)Glc(a1-3)Glc(a1-3)Glc
# How it was run: as §1
# [14] = molecular target: Glc(a1-3)Glc(a1-3)Glc(a1-3)Glc(a1-3)Glc(a1-3)Glc(a1-3)Glc(a1-3)Glc(a1-3)Glc(a1-3)Glc(a1-3)Glc
# How it was run: as §1
# [15] = molecular target: Glc(a1-3)Glc(a1-3)Glc(a1-3)Glc(a1-3)Glc(a1-3)Glc(a1-3)Glc(a1-3)Glc(a1-3)Glc(a1-3)Glc(a1-3)Glc(a1-3)Glc
# How it was run: as §1
# [16] = molecular target: Glc(a1-3)Glc(a1-3)Glc(a1-3)Glc(a1-3)Glc(a1-3)Glc(a1-3)Glc(a1-3)Glc(a1-3)Glc(a1-3)Glc(a1-3)Glc(a1-3)Glc(a1-3)Glc
# How it was run: as §1
# Glc(a1-4)Glc = molecular target: Glc(a1-4)Glc
# How it was run: as §1
# Glc(a1-4)Glc(a1-4)Glc = molecular target: Glc(a1-4)Glc(a1-4)Glc
# How it was run: as §1
# [17] = molecular target: Glc(a1-4)Glc(a1-4)Glc(a1-4)Glc
# How it was run: as §1
# [18] = molecular target: Glc(a1-4)Glc(a1-4)Glc(a1-4)Glc(a1-4)Glc
# How it was run: as §1
# [19] = molecular target: Glc(a1-4)Glc(a1-4)Glc(a1-4)Glc(a1-4)Glc(a1-4)Glc
# How it was run: as §1
# [20] = molecular target: Glc(a1-4)Glc(a1-4)Glc(a1-4)Glc(a1-4)Glc(a1-4)Glc(a1-4)Glc
# How it was run: as §1
# [21] = molecular target: Glc(a1-4)Glc(a1-4)Glc(a1-4)Glc(a1-4)Glc(a1-4)Glc(a1-4)Glc(a1-4)Glc
# How it was run: as §1
# [22] = molecular target: Glc(a1-4)Glc(a1-4)Glc(a1-4)Glc(a1-4)Glc(a1-4)Glc(a1-4)Glc(a1-4)Glc(a1-4)Glc
# How it was run: as §1
# [23] = molecular target: Glc(a1-4)Glc(a1-4)Glc(a1-4)Glc(a1-4)Glc(a1-4)Glc(a1-4)Glc(a1-4)Glc(a1-4)Glc(a1-4)Glc
# How it was run: as §1
# [24] = molecular target: Glc(a1-4)Glc(a1-4)Glc(a1-4)Glc(a1-4)Glc(a1-4)Glc(a1-4)Glc(a1-4)Glc(a1-4)Glc(a1-4)Glc(a1-4)Glc
# How it was run: as §1
# [25] = molecular target: Glc(a1-4)Glc(a1-4)Glc(a1-4)Glc(a1-4)Glc(a1-4)Glc(a1-4)Glc(a1-4)Glc(a1-4)Glc(a1-4)Glc(a1-4)Glc(a1-4)Glc
# How it was run: as §1
# [26] = molecular target: Glc(a1-4)Glc(a1-4)Glc(a1-4)Glc(a1-4)Glc(a1-4)Glc(a1-4)Glc(a1-4)Glc(a1-4)Glc(a1-4)Glc(a1-4)Glc(a1-4)Glc(a1-4)Glc
# How it was run: as §1
# Glc(a1-4)Glc(a1-6)Glc = molecular target: Glc(a1-4)Glc(a1-6)Glc
# How it was run: as §1
# Glc(a1-6)Glc = molecular target: Glc(a1-6)Glc
# How it was run: as §1
# Glc(a1-6)Glc(a1-4)Glc = molecular target: Glc(a1-6)Glc(a1-4)Glc
# How it was run: as §1
# [27] = molecular target: Glc(a1-6)Glc(a1-4)Glc(a1-4)Glc
# How it was run: as §1
# [28] = molecular target: Glc(a1-6)Glc(a1-4)Glc(a1-4)Glc(a1-6)Glc(a1-4)Glc(a1-4)Glc
# How it was run: as §1
# Glc(a1-6)Glc(a1-6)Glc = molecular target: Glc(a1-6)Glc(a1-6)Glc
# How it was run: as §1
# [29] = molecular target: Glc(a1-6)Glc(a1-6)Glc(a1-6)Glc
# How it was run: as §1
# [30] = molecular target: Glc(a1-6)Glc(a1-6)Glc(a1-6)Glc(a1-6)Glc
# How it was run: as §1
# [31] = molecular target: Glc(a1-6)Glc(a1-6)Glc(a1-6)Glc(a1-6)Glc(a1-6)Glc
# How it was run: as §1
# [32] = molecular target: Glc(a1-6)Glc(a1-6)Glc(a1-6)Glc(a1-6)Glc(a1-6)Glc(a1-6)Glc
# How it was run: as §1
# [33] = molecular target: Glc(a1-6)Glc(a1-6)Glc(a1-6)Glc(a1-6)Glc(a1-6)Glc(a1-6)Glc(a1-6)Glc
# How it was run: as §1
# [34] = molecular target: Glc(a1-6)Glc(a1-6)Glc(a1-6)Glc(a1-6)Glc(a1-6)Glc(a1-6)Glc(a1-6)Glc(a1-6)Glc
# How it was run: as §1
# [35] = molecular target: Glc(a1-6)Glc(a1-6)Glc(a1-6)Glc(a1-6)Glc(a1-6)Glc(a1-6)Glc(a1-6)Glc(a1-6)Glc(a1-6)Glc
# How it was run: as §1
binder,measurement,setting,value
B1,glycan array binding signal (z-score),Glc(a1-2)Glc,-0.351
same,glycan array binding signal (z-score),Glc(a1-2)Glc(a1-2)Glc,-0.351
same,glycan array binding signal (z-score),[1],-0.351
same,glycan array binding signal (z-score),[2],-0.351
same,glycan array binding signal (z-score),[3],-0.351
same,glycan array binding signal (z-score),[4],-0.351
same,glycan array binding signal (z-score),[5],-0.351
same,glycan array binding signal (z-score),[6],-0.351
same,glycan array binding signal (z-score),Glc(a1-3)Glc,-0.351
same,glycan array binding signal (z-score),Glc(a1-3)Glc(a1-3)Glc,-0.343
same,glycan array binding signal (z-score),[7],-0.335
same,glycan array binding signal (z-score),[8],-0.346
same,glycan array binding signal (z-score),[9],-0.335
same,glycan array binding signal (z-score),[10],-0.23
same,glycan array binding signal (z-score),[11],-0.115
same,glycan array binding signal (z-score),[12],-0.341
same,glycan array binding signal (z-score),[13],-0.18
same,glycan array binding signal (z-score),[14],-0.268
same,glycan array binding signal (z-score),[15],-0.3
same,glycan array binding signal (z-score),[16],-0.231
same,glycan array binding signal (z-score),Glc(a1-4)Glc,-0.202
same,glycan array binding signal (z-score),Glc(a1-4)Glc(a1-4)Glc,1.03
same,glycan array binding signal (z-score),[17],2.43
same,glycan array binding signal (z-score),[18],2.46
same,glycan array binding signal (z-score),[19],3.61
same,glycan array binding signal (z-score),[20],3.13
same,glycan array binding signal (z-score),[21],4.12
same,glycan array binding signal (z-score),[22],2.46
same,glycan array binding signal (z-score),[23],2.94
same,glycan array binding signal (z-score),[24],2.87
same,glycan array binding signal (z-score),[25],3.44
same,glycan array binding signal (z-score),[26],3.31
same,glycan array binding signal (z-score),Glc(a1-4)Glc(a1-6)Glc,1.08
same,glycan array binding signal (z-score),Glc(a1-6)Glc,-0.351
same,glycan array binding signal (z-score),Glc(a1-6)Glc(a1-4)Glc,-0.351
same,glycan array binding signal (z-score),[27],-0.286
same,glycan array binding signal (z-score),[28],2.47
same,glycan array binding signal (z-score),Glc(a1-6)Glc(a1-6)Glc,-0.283
same,glycan array binding signal (z-score),[29],-0.351
same,glycan array binding signal (z-score),[30],-0.351
same,glycan array binding signal (z-score),[31],-0.351
same,glycan array binding signal (z-score),[32],-0.351
same,glycan array binding signal (z-score),[33],-0.351
same,glycan array binding signal (z-score),[34],-0.351
same,glycan array binding signal (z-score),[35],-0.351
